Source: PubChem BioAssay AID588579 (National Center for Advancing Translational Sciences (NCATS), 2011)
Screen size: about 400,000 compounds; about 2,200 (0.55%) were called active. The shares of active, inactive and inconclusive entries below differ from those in the screen. Calls follow the shape of the dose curve; as a rule, active = well fitted inhibition curve with a large enough effect; inconclusive = small, poorly fitted or top-dose-only effect, or another doubt; inactive = no such curve, though single readings can be large or run the other way. Potencies of inconclusive entries are doubtful fits and often do not repeat.
% is scaled to controls: 0 for no effect and ±100 for the full control effect; potency is read from the fitted curve at half-maximal effect; tags tell the direction and shape of the fitted curve.

What follows are compounds tested against DNA polymerase kappa (Homo sapiens) (UniProt Q9UBT6) (assay: qHTS for Inhibitors of Polymerase Kappa). Conditions: purified Pol kappa, fluorescent DNA synthesis assay, 10 min; series mostly up to 107 µM.
Sequence of UniProt Q9UBT6 (Q9UBT6 whole entry, looked up): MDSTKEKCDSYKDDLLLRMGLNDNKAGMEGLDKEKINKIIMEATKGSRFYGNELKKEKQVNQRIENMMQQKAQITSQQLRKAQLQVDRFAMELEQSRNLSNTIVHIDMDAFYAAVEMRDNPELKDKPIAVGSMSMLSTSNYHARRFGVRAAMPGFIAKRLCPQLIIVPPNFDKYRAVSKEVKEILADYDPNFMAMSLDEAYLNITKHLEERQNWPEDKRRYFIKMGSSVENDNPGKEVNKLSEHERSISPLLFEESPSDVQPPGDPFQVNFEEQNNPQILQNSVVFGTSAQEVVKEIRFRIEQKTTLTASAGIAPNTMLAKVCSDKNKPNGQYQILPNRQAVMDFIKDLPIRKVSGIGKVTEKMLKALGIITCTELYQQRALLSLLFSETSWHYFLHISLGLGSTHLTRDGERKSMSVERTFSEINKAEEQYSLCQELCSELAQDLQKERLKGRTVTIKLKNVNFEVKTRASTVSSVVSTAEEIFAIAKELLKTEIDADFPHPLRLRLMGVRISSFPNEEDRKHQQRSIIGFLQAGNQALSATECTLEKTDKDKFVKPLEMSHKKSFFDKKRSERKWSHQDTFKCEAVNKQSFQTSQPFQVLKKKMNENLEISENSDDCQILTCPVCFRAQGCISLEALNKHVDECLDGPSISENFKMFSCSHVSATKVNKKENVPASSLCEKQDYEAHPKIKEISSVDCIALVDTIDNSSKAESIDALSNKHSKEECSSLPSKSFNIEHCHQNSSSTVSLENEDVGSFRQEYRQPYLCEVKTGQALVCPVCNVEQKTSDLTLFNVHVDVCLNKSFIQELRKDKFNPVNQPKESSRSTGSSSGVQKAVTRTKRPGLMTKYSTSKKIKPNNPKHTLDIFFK
Outline: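 Kinetic fluorescence readout at 0 and 10 min followed reaction start with substrate at 50 nM final. Beforehand, enzyme (10 nM Pol kappa) stood 15 min with compound at room temperature; buffer-only wells were negative controls.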
In the case of `COc1ccc(CCN(C)C2CCCN(C(=O)Cn3cccn3)C2)cc1OC` (stereo not drawn), the Potency is reported as inconclusive: 89.1 µM [inhibitor, partial curve, poor fit]. With `CCN1CCN(CC(O)COC(c2ccccc2)c2ccccc2C)CC1` (stereo not drawn) the Potency was inconclusive: 89.1 µM [inhibitor, single point]. For `S=c1[nH]nc(-c2ccccc2Cl)n1/N=C/C=C/c1ccco1`, the Potency was active: 79.4 µM. In the case of `Cc1cc(C)c2cc3c(N)c(C(=O)Nc4c(C)[nH]c(=O)[nH]c4=O)sc3nc2c1`, the Potency is reported as “inactive”. With `Cc1ccc(/C=C2/C(=O)c3ccc(C(=O)O)cc3C2=O)o1` the Potency was active: 5.01 µM. For `OCCC1CN(Cc2ccc(F)cc2)CCN1CCCc1ccccc1` (stereo not drawn), the Potency was inconclusive: 89.1 µM [inhibitor, single point]. With `CCc1ccc(-n2c(CCC(=O)O)ccc2-c2ccc(F)cc2)cc1` the Potency was “inactive”. In the case of `COc1cccc2sc(N3CCN(C(=O)CCS(=O)(=O)c4ccc(F)cc4)CC3)nc12`, the Potency is reported as “inactive”. With `Cc1ccc(NC(=O)Cn2nnc(C(=O)NCCc3ccccc3)c2N)cc1C` the Potency was inconclusive: 89.1 µM [inhibitor, partial curve, poor fit]. For `O=C1N=C(N2C=CC(=C3C=CNC=C3)C=C2)/C(=C/N=NC(=O)c2ccccc2O)S1`, the Potency was inconclusive: 79.4 µM [inhibitor, partial curve, poor fit]. For `CC(C(=O)NC1C(=O)N2C(C(=O)O)=C(CSc3nnnn3C)CSC12)n1cc(Br)cn1` (stereo not drawn), the Potency was inconclusive: 100 µM [inhibitor, single point]. With `Cc1cc(=O)cc2oc3cc(N)c(-c4c(C)cc(O)cc4O)c(C)c3nc1-2` the Potency was active: 4.47 µM. In the case of `CCCCC/C=C\C/C=C\CCCCCCCC(=O)O`, the Potency is reported as inconclusive: 26.7 µM [inhibitor, partial curve] and the activity, negative = inhibition is reported as inactive: 1.17% [at 19.4 µM]. For `COCCCN(C(=O)c1cc2c(s1)CCC2)c1c(N)n(Cc2ccccc2)c(=O)[nH]c1=O`, the Potency was inconclusive: 89.1 µM [inhibitor, single point]. `Cc1cccc(N(C)C(=S)Oc2ccc3ccccc3c2)c1` was tested, and the Potency was inconclusive: 10 µM [inhibitor, partial curve, poor fit]. In the case of `CCN(CC)C(=O)Cn1cc(C(=O)C(=O)N2CCN(c3ccc([N+](=O)[O-])cc3)CC2)c2ccccc21`, the Potency is reported as “inactive”. `CCOC(=O)c1cccc(NC(=O)N2CCC(CN3CCCCCC3)CC2)c1` was tested, and the Potency was “inactive”. In the case of `O=C(O)c1cccc(N/N=C/c2cc(Br)cc(Br)c2O)c1`, the Potency is reported as inconclusive: 89.1 µM [inhibitor, single point]. In the case of `C#CCn1cc(/C=C2\NC(=O)NC2=O)c2ccccc21`, the Potency is reported as inconclusive: 89.1 µM [inhibitor, single point]. In the case of `CCCCCCCNS(=O)(=O)c1cccc2c(Cl)cccc12`, the Potency is reported as inconclusive: 6.31 µM [inhibitor, partial curve, poor fit]. In the case of `CCOC(=O)C[n+]1cccc(Br)c1`, the Potency is reported as inconclusive: 89.1 µM [inhibitor, single point]. `COc1ccc(-c2nc3ccccc3o2)cc1NC(=O)COc1ccc(C)cc1` was tested, and the Potency was “inactive”. In the case of `COc1ccc2c(c1)CC/C(=C\c1ccc(OC)c(Cn3nc(C)cc3C)c1)C2=O`, the Potency is reported as inconclusive: 20 µM [inhibitor, full curve]. `Cc1ccc(NC(=O)CSc2nc(NS(=O)(=O)c3ccccc3)cc(=O)[nH]2)cc1` was tested, and the Potency was active: 22.4 µM. `CCOC(=O)c1cccc(NC(=O)c2cncc(Br)c2)c1` was tested, and the Potency was active: 79.4 µM. In the case of `Cn1c(=O)[nH]c(=O)c2c1nc1n2CCN1c1ccccc1`, the Potency is reported as inconclusive: 100 µM [inhibitor, single point]. In the case of `CCOC(=O)c1cnc(-n2[nH]c(C)cc2=O)[nH]c1=O`, the Potency is reported as active: 8.91 µM. For `COc1cc(/C=N/NC(=O)c2ccc(Cl)c(S(N)(=O)=O)c2)ccc1OCC(N)=O`, the Potency was inconclusive: 89.1 µM [inhibitor, partial curve]. `Cc1nc2cc(NC(=O)N3CCN(c4ccccn4)CC3)ccc2o1` was tested, and the Potency was “inactive”. In the case of `Cn1c(SCC(=O)Nc2ccc3nc(SCC(=O)N4CCCC4)sc3c2)nnc1-c1ccccc1`, the Potency is reported as active: 79.4 µM. With `Oc1ccc(NCc2ccc(OCc3ccccc3Cl)cc2)cc1` the Potency was inconclusive: 79.4 µM [inhibitor, partial curve, poor fit]. In the case of `CC(C)C[C@H](NC(=O)[C@@H]1CCCN1C(=O)[C@H](CO)NC(=O)[C@H](Cc1ccccc1)NC(=O)CNC(=O)[C@@H]1CCCN1C(=O)[C@@H]1CCCN1C(=O)[C@@H](N)CCCN=C(N)N)C(=O)O`, the Potency is reported as “inactive”. `N#C/C(=C\c1c(Oc2ccc(Br)cc2)nc2ccccn2c1=O)c1nc2ccccc2s1` was tested, and the Potency was active: 79.4 µM. With `CC1CCN(S(=O)(=O)c2cn(CC(=O)N3CCN(c4cccc(C(F)(F)F)c4)CC3)cn2)CC1` the Potency was inconclusive: 89.1 µM [inhibitor, partial curve, poor fit]. In the case of `O=C(O)/C(=C\c1cccc(O)c1)c1ccc(S(=O)(=O)N2CCCC2)s1`, the Potency is reported as inconclusive: 79.4 µM [inhibitor, partial curve, poor fit]. With `Nc1c(/C=C2/C=CC(=O)C(O)=C2)c(=O)nc2sc(CC(=O)N3CCOCC3)nn12` the Potency was inconclusive: 17.8 µM [inhibitor, full curve, poor fit]. `N#Cc1c(SCC(=O)Nc2nc3ccc(Br)cc3s2)sc2c(O)cc(=O)[nH]c12` was tested, and the Potency was active: 31.6 µM. For `CC(C)Nc1ccc(Nc2ccnc3cc4ccccc4cc23)cc1`, the Potency was inconclusive: 89.1 µM [inhibitor, partial curve, poor fit]. `N#C/C(=C\c1ccc(OCc2ccc(F)cc2)cc1)C(=O)Nc1cccc(C(=O)O)c1` was tested, and the Potency was inconclusive: 79.4 µM [inhibitor, single point]. `O=C(O)c1cc(N/N=C/c2ccc3c(c2)OCCO3)ccc1Cl` was tested, and the Potency was inconclusive: 89.1 µM [inhibitor, partial curve, poor fit]. In the case of `CC(C)(C)NC(=O)C(c1ccc(F)cc1)N(Cc1ccco1)C(=O)Cn1nnc(-c2cccs2)n1` (stereo not drawn), the Potency is reported as “inactive”. For `CC(NC(=O)C1CCCN1S(=O)(=O)c1ccccc1)c1ccccc1` (stereo not drawn), the Potency was “inactive”.
